# Reference: PMC4336329 (PLoS ONE, 2015)
# The whole screen tested about 310,000 compounds, of which about 2,200 (0.71%) showed an effect of 50% or more. The effect is printed as a negative number. The list shows a part of the results.
# Biological target: human ether-à-go-go-related gene (hERG) potassium channel (human, UniProt Q12809)
# Assay: primary screen, population patch clamp on CHO cells stably expressing hERG
# human ether-à-go-go-related gene (hERG) potassium channel, sequence (Q12809 whole entry, looked up): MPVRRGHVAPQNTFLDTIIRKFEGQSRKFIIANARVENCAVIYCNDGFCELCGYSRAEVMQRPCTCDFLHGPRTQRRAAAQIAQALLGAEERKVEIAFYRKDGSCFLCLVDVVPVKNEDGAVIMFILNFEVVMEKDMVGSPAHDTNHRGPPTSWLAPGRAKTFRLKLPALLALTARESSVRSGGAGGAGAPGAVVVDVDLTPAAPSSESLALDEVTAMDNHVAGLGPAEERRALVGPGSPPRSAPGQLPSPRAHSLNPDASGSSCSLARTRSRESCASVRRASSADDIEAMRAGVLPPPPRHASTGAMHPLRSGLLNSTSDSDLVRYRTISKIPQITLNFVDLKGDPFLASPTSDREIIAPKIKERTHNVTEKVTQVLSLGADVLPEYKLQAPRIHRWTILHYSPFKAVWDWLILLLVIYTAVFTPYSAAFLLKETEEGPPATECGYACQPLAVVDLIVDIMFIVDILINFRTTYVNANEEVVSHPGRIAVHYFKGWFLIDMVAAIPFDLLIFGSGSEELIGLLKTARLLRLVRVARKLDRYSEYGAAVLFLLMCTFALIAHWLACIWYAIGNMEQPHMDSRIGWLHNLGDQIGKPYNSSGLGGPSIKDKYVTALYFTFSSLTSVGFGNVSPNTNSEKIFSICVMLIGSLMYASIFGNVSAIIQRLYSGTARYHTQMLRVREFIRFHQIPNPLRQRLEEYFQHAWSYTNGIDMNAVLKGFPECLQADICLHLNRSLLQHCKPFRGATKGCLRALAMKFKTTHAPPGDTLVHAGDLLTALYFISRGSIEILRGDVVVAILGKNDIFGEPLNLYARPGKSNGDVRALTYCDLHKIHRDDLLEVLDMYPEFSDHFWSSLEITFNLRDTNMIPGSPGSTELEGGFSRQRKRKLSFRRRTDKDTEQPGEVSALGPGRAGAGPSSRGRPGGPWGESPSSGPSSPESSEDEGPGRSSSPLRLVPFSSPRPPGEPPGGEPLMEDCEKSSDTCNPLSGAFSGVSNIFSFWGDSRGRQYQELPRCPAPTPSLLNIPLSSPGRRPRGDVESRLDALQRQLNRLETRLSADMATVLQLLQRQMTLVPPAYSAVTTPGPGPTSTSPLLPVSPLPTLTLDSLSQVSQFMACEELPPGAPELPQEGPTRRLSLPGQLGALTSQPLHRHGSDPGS
row,SMILES,"hERG current change (%, negative = inhibition) at 1uM"
1,Cc1cccc(C)c1NC(=O)N1CCN(C2CCCCC2)CC1,29.2%
2,COc1ccc(C(C(=O)NC(C)(C)C)N(C(=O)CNC(=O)c2cccs2)c2cccnc2)cc1OC (stereo not drawn),13%
3,CN(C)c1ccc(C2OC(=O)C3(CCCC3)C(=O)C2(C)C)cc1 (stereo not drawn),-1.66%
4,CO/N=C/NC(=O)NOCc1c(Cl)cccc1Cl,12.6%
5,COC(=O)c1c2[n+](cc3cc(OC)c(OC)cc13)CCc1cc(OC)c(OC)cc1-2.[O-][Cl+3]([O-])([O-])[O-],17.3%
6,CCN(CC)CC.COc1ccc(-n2c(=S)[nH]c3c(sc(=S)n3-c3ccccc3)c2=O)c(OC)c1,8.81%
7,O=C(Nc1ccc2nc(-c3cccnc3)[nH]c2c1)c1ccccc1F,13.7%
8,Cc1nnsc1-c1nnc(SCC(=O)c2ccccc2)n1C1CC1,11.6%
9,COc1cc(C(=O)NC(C(=O)Nc2cccc(C(C)=O)c2)C(C)C)cc(OC)c1OC (stereo not drawn),7.48%
10,CCOc1ccc(NC(=S)NCc2ccco2)cc1,8.51%
11,Cc1ccc(C(=O)N/N=c2\sc3ccccc3n2C)cc1,7.83%
12,CCOc1ccc(Nc2oc(-c3ccc(Cl)cc3)nc2C#N)cc1,12.9%
13,Cc1ccc(C(=O)Nc2cccc3cccnc23)cc1C,15.1%
14,CCOC(=O)C1C(=O)C=C(Nc2ccccc2F)CC1c1ccccc1 (stereo not drawn),10.3%
15,COc1ccc2[nH]c3nc(SCC(=O)NC4CC4)nnc3c2c1,4.99%
16,CC(Sc1ccccc1)C(=O)N/N=C/c1cccnc1 (stereo not drawn),10.7%
17,CCN(CC)C(=O)C1=C(C)NC(=S)NC1c1cn(-c2ccccc2)nc1-c1ccc(Cl)cc1 (stereo not drawn),-9.26%
18,Cc1c(Cl)cccc1NC(=S)NCCN1CCOCC1,14.5%
19,CCc1ccc(NC(=O)COC(=O)c2cccs2)cc1,18.6%

row,SMILES,"hERG current change (%, negative = inhibition) at 1uM"
1,COC(=O)c1ccc(OCC(=O)NC2CCCCCC2)cc1,11.3%
2,C/C(=N\NC(=O)CO/N=C(\C)c1cccs1)c1ccc(N)cc1,10.8%
3,COc1ccc(C2N3CC4(C)CN2CC(C)(C3)C4)cc1OC (stereo not drawn),10.8%
4,COc1ccc2ccccc2c1CNCCCN1CCOCC1.Cl,9.7%
5,C/C(=N\Nc1nc(C)cc(-c2ccccc2)n1)c1cccc(N)c1,18.3%
6,C#CCOCCOCCOCCNc1nc(N2CCN(C(=O)[C@H]([C@@H](C)CC)n3cc([C@@H](N)CC(C)C)nn3)CC2)nc(N2CCN(C(=O)[C@H](CCCCN)n3cc([C@@H](N)CC(C)C)nn3)CC2)n1.Cl,-5%
7,Cn1c2ccccc2c2cc([N+](=O)[O-])ccc21,-4.74%
8,CC(C)NC(=O)c1cc(-c2cccs2)nc2ccccc12,11.1%
9,COCCNC(=O)CN1CCC(NC(=O)c2ccco2)CC1,7.49%
10,O=C(Cc1n[nH]c(=O)[nH]c1=O)N/N=C/c1c(O)ccc2ccccc12,17.8%
11,CC(C)CNC(=O)CCCc1c[nH]c2ccccc12.O=C(O)C(=O)O,13.6%
12,C=CCn1c(N2CCOCC2)nc2c1c(=O)[nH]c(=O)n2C,8.73%
13,O=S(=O)(c1ccc(F)c(Cl)c1)N1CCN(C/C=C/c2ccccc2)CC1,14.7%
14,CCOC(=O)CSc1nc(N)c(C#N)c(-c2ccc(OC)cc2)c1C#N,14.9%
15,COCCNC(=O)CN(c1cc(Cl)ccc1OC)S(C)(=O)=O,2.02%
16,COc1ccc(-c2cc(C(F)(F)F)nc(SCC(=O)Nc3cc(C)on3)n2)cc1,20%
17,Cc1ccc2nc(-c3ccc(NC(=O)COCC(=O)O)cc3)sc2c1,11.9%
18,COc1cc(/C=C/c2ccc3c(Br)cc(Br)c(O)c3n2)ccc1O,4.06%
19,CCOc1ccc(-n2ccnc(SCC(=O)Nc3ccc(OC)cc3OC)c2=O)cc1,17.1%

row,SMILES,"hERG current change (%, negative = inhibition) at 1uM"
1,O=C(COc1cccc(Br)c1)Nc1ccc(N2CCOCC2)cc1N1CCOCC1,-4.35%
2,Cc1ccc(S(=O)(=O)NCCn2nc(C)cc2C)cc1,13.6%
3,COc1ccc(COc2cccc3ccc(C)nc23)cc1F,20%
4,COc1ccc(CCC(=O)N/N=C\c2cccs2)cc1,10.3%
5,CCCN(c1ccc(OCC)cc1)S(=O)(=O)c1ccc2c(c1)NC(=O)CO2,13.5%
6,CCOc1ccccc1C(=O)NCCC(=O)O,17.2%
7,CCCCN1CC(C(=O)NCc2ccc(C)cc2)CC1=O (stereo not drawn),-4.05%
8,CCN(CC)S(=O)(=O)c1ccc(C)c(NC(=S)NC2CCCCC2)c1,8.1%
9,O=C(Cn1cnc([N+](=O)[O-])n1)c1ccc(O)c(O)c1,21.5%
10,Cc1ccc(OCCC(=O)OC(C)C(=O)Nc2ccc(Cl)cn2)cc1 (stereo not drawn),-14.7%
11,CC(=O)c1c(N2CCOCC2)nc2ccc(Cl)cc2c1-c1ccccc1,6.99%
12,O=C(NCc1ccco1)C1CCCN1C(=O)Nc1ccccc1Cl (stereo not drawn),10.8%
13,CCOc1ccc(Cc2c(C)[nH]c3ccc(C(=O)O)cc3c2=S)cc1,13.2%
14,COc1ccc(NC(=O)Nc2ccc3c(c2)CCC3)c(OC)c1,6.46%
15,CC(C)c1ccc(C(=O)CSc2n[nH]c(-c3ccncc3)n2)cc1,7.16%
16,CC(SCc1ccccc1)C(=O)N/N=C/c1ccc2c(c1)OCO2 (stereo not drawn),9.74%
17,CN(C)CCCN(C(=O)c1cccc(N2C(=O)CCC2=O)c1)c1nc2cc3c(cc2s1)OCO3.Cl,6.19%
18,Cn1cccc1C(=O)c1ccc(Cl)cc1Cl,7.82%
19,O=C1c2cccc(O)c2C(=O)c2c(O)cccc21,3.17%
